The whole screen tested about 310,000 compounds, of which about 2,200 (0.71%) showed an effect of 50% or more. Effects have a minus sign here. This is one part of the list.
biological target: human ether-à-go-go-related gene (hERG) potassium channel (human, UniProt Q12809); test: primary screen, population patch clamp on CHO cells stably expressing hERG
Sequence (Q12809 whole entry, looked up): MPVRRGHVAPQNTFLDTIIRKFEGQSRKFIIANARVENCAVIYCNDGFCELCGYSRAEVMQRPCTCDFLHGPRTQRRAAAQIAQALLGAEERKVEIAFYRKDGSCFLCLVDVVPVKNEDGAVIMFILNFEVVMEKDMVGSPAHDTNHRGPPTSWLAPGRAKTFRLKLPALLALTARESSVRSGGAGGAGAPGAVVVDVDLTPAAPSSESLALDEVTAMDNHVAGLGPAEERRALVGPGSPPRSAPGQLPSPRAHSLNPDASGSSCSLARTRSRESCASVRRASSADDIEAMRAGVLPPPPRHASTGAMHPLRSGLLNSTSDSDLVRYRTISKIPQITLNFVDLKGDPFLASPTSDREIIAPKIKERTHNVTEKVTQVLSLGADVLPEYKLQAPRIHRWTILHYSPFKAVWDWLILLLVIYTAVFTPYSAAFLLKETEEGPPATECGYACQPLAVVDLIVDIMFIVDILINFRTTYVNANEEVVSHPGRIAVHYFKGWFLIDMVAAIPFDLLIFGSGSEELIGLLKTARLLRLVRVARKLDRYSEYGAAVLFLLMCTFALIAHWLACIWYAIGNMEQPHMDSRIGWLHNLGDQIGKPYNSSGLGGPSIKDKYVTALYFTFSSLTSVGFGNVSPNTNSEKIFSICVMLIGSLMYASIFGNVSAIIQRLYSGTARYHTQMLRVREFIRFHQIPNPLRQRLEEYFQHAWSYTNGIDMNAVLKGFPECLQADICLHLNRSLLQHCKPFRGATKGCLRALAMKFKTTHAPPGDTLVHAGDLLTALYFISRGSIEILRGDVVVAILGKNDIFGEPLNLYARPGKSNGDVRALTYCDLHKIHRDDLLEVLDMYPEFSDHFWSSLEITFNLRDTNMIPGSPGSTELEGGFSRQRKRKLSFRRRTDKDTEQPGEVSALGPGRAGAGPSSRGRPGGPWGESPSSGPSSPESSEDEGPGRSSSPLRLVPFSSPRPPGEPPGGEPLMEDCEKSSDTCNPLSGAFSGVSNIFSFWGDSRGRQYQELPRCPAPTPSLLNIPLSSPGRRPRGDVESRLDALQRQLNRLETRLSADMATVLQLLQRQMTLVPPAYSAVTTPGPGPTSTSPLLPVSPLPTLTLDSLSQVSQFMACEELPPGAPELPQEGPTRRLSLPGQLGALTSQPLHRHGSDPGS

SMILES	hERG current change (%, negative = inhibition) at 1uM [%]
Cc1ccc(S(=O)(=O)N2CCC(C(=O)OC3CCOC3=O)CC2)cc1C (centres unmarked)	2.69
Cc1ccc(-c2nc(CS(=O)CC(=O)NC(C)CCc3ccccc3)c(C)o2)cc1 (centres unmarked)	-9.57
Cc1cccc(-n2nc3c(c2NC(=O)c2ccco2)CSC3)c1C	4.1
CN(C(=O)c1ccccc1C(=O)OCC(=O)NCc1cccs1)C1CCCCC1	8.9
CCc1ccc(Nc2cc(C)nc3ncnn23)cc1	1.97
CCOc1ccc(C(C)=O)cc1Cc1c(O)[nH]c(=S)[nH]c1=O	8.88
Cc1cc(NC(=O)CCC(=O)N(Cc2ccco2)C(C(=O)NC2CCCCC2)c2cccs2)no1 (centres unmarked)	-5.21
CC(C)(C)c1cc(C(C)(C)C)cc(S(=O)(=O)CCc2ccccn2)c1	7.45
Cc1ccc(C(=O)N2CCC(n3nccc3NC(=O)c3ccccc3C)CC2)cn1	-5.07
O=C(Nc1nccs1)c1cc2cc(Cl)ccc2oc1=O	12.3
COc1cc(/C=N/NC(=O)C(=O)/C=C2\NC(C)(C)Cc3ccccc32)ccc1O	9.34
Cc1ccc(-n2ccc(=O)c(C(=O)Nc3ccc(S(=O)(=O)Nc4nccc(C)n4)cc3)n2)cc1	0.335
CCOc1ccc(NC(=O)Nc2cc(C)ccc2OC)cc1	5.71
COC(=O)c1c(C)[nH]c(C(=O)COc2ccc3ccc(=O)oc3c2)c1C	7.22
CNC(=S)NN(c1ccccc1)c1ccccc1	3.65
CCOC(=O)C1=C(C)OC2(O)c3ccccc3C(=O)C12O (centres unmarked)	12.1
Cc1ccc(OCc2nnc(SC3CCc4ccccc4C3=O)n2C)cc1 (centres unmarked)	-4.61
CCOC(=O)c1cc2c(ccc3ccccc32)oc1=O	-7.25
Cc1ccc(C)c(Cn2nnc3c(=O)[nH]c(C4CCCN(S(=O)(=O)Cc5ccccc5)C4)nc32)c1 (centres unmarked)	11.5
CCn1nnnc1SCC(=O)c1ccc(NC(C)=O)cc1	7.74
O=C(CSc1nnnn1-c1cccc2ccccc12)Nc1ccc(C(=O)O)cc1	6.44
Cc1cc(NC(=O)C2CC=CCC2C(=O)O)ccc1NC(=O)c1ccccc1 (centres unmarked)	10.1
O=C(Cn1c(=O)c(=O)n(Cc2ccccc2)c2ccc(Cl)cc21)NCC1CCCO1 (centres unmarked)	16.1

SMILES	hERG current change (%, negative = inhibition) at 1uM [%]
COc1ccc(OC)c(NC(=O)CSC2=C(C#N)C(c3ccco3)C3=C(CCCC3=O)N2)c1 (centres unmarked)	10.1
CC1(C)CC(NCc2ccccc2)CCO1.Cl (centres unmarked)	1.34
O=C(O)c1ccccc1C(=O)NCc1cccnc1	-1.84
COc1ccc(NC(=O)c2ccccc2NC(=O)c2cccs2)cc1	20.3
CCCC(C(=O)O)N1C(=O)/C(=C2\C(=O)N(C)c3ccccc32)SC1=S (centres unmarked)	-1.37
COCCCNC(=O)CN(CCc1ccccc1)S(=O)(=O)c1ccccc1	4.7
CCn1c(SCC(=O)N2CCCCCC2)nc2ccccc2c1=O	2.02
CCCCN(C(=S)SC)C1CCS(=O)(=O)C1 (centres unmarked)	-7.33
CC1CCCN(C(=O)COC(=O)C2CCN(S(=O)(=O)c3ccc(Cl)c(C(F)(F)F)c3)CC2)C1 (centres unmarked)	6.22
COc1cccc(C(=O)Nc2c[nH]c(=O)[nH]c2=O)c1	11.2
CC1CCCN(S(=O)(=O)c2ccc(NC(=O)C3CCN(C(=O)c4ccco4)CC3)cc2)C1 (centres unmarked)	9.59
CCN(CC)CC(=O)Nc1ccc(/C(C)=N/NC2=NCCN2)cc1	15.5
CC(=O)c1c(C)n(C)c2ccc(O)cc12	15.4
CC(C)c1ccc(NC(=O)NC2(C(=O)NCc3cccnc3)CCCCC2)cc1	11
CCCNC(=O)C/C(C)=N/NC(=O)C(=O)Nc1ccccn1	14.8
Cc1cccn2cc(CNS(=O)(=O)c3cccc(F)c3)nc12	12.1
CCOC(=O)c1sc2nc(SCC#N)n(CCCN3CCCC3=O)c(=O)c2c1C	-34
O=C(C1CCCN(S(=O)(=O)c2cccc3cccnc23)C1)N1CCN(c2ccccc2F)CC1 (centres unmarked)	-27.5
CC12CCC(=O)N1C(C(=O)NCCN1C(=O)S/C(=C\c3ccccc3Cl)C1=O)CS2 (centres unmarked)	-0.743
N#Cc1ccc(-c2ccc(F)cc2)nc1SCC(=O)Nc1sc2c(c1C#N)CCC2	7.89
CC(C)C(=O)Nc1ccc2c(c1)nc(CCN1CCN(C)CC1)n2C	0.191
CCn1cc(C2=NC(CC(C)C)CO2)c2ccccc21 (centres unmarked)	0.691
Cc1cc(C)nc(NS(=O)(=O)c2ccc(N/C=C\C(=O)c3cccs3)cc2)n1	15.4

SMILES	hERG current change (%, negative = inhibition) at 1uM [%]
Cc1cc(=O)oc2cc(OCC(=O)NCC3CCCO3)ccc12 (centres unmarked)	2.53
O=C1CSC(=S)N1/N=C/c1ccc(O)c(O)c1O	5.89
NS(=O)(=O)c1ccc(NNC(=O)c2sccc2Cl)cc1	1.99
CCN(CC)C(C)C(=O)NCC1(c2ccccc2)CCOCC1.Cl (centres unmarked)	3.42
Clc1ccc(Cn2nnc(-c3ccc(CN4CCOCC4)cc3)n2)cc1	7.6
CC(C)n1c(SCc2ccccc2F)nc2c1c(=O)n(C)c(=O)n2C	1.31
COc1cc(/C=C2\C(=O)N(C)C(=S)N2C)ccc1O	11.2
O=[N+]([O-])c1ccc(Cl)c(CN2CCSCC2)c1	15.1
COC(=O)c1ccc2c(c1)NC(=O)C(N1CCCCC1)S2 (centres unmarked)	-0.836
CCC(C)(C)n1nnnc1C(c1ccc(O)c(OC)c1)N1CCN(c2nc3ccccc3s2)CC1 (centres unmarked)	0.214
CC1CN(C(=O)CS(=O)(=O)Cc2ccc(Cl)cc2)CC(C)O1 (centres unmarked)	18.6
Cc1ccc(CN2CC(C(=O)Nc3ccncc3)CC2=O)cc1 (centres unmarked)	8.88
CCOC(=O)N1CCN(CC(O)COc2ccc(C)c(C)c2)CC1.Cl (centres unmarked)	12.4
CN(C)S(=O)(=O)c1ccc(C(=O)Nc2cccc(C(=O)O)c2)cc1	4.33
CCOc1ccc(CCNC(=O)C2CCCN(c3nn4c(=O)cc(C)nc4s3)C2)cc1 (centres unmarked)	-4.66
Cc1cc2c(N=NC(=O)C3CC3c3ccccc3)c(O)[nH]c2cc1Br (centres unmarked)	3.77
CN(C)C(CNC(=O)c1ccc(C(F)(F)F)cc1)c1ccco1 (centres unmarked)	15.2
CC1(C)Cc2c(C#N)c(NCC3CCCO3)nc(-c3ccco3)c2CO1 (centres unmarked)	16.4
Cc1nc(Nc2ccc(S(N)(=O)=O)cc2)sc1-c1ccccc1	21.6
CCc1cccc(C)c1NC(=S)N(CCN(C)C)Cc1cccs1	-3.85
Br.CNCCc1nc(N)n[nH]1	9.54
O=C(COC(=O)c1cc(-c2cccc3ccccc23)nc2ccccc12)NC1CCS(=O)(=O)C1 (centres unmarked)	5.94
Cc1cc(N)n2nc(C)c(-c3ccccc3)c2n1	3.66

SMILES	hERG current change (%, negative = inhibition) at 1uM [%]
COc1ccc(NC(=O)CCNC(=O)C2CCN(S(=O)(=O)c3ccc(OC)cc3)CC2)cc1	15.1
Cc1ccc(/C=C/C2=NN(C)C(=O)CC2)cc1	8.49
COc1ccc(/C=N/n2cnc3c([nH]c4ccc(F)cc43)c2=O)cc1CSc1ccccn1	13.4
CCP(=O)(CC)C(C)(C)CP(=O)(c1ccccc1)c1ccccc1	1.89
CCOC(=O)C1(C)NC(c2cccs2)C2C(=O)N(c3ccc(C)cc3)C(=O)C21 (centres unmarked)	21.8
O=C(NCCN1CCOCC1)c1cc([N+](=O)[O-])ccc1Cl	9.99
CC(C)C(NC(=O)c1ccccc1F)C(=O)Nc1nccs1 (centres unmarked)	17.5
CCCCNS(=O)(=O)c1ccc(NC(=O)C2CCCO2)cc1 (centres unmarked)	-2.01
COc1cc(NC(=S)Nc2cccc(Cl)c2Cl)c(OC)cc1Cl	0.369
S=c1[nH]ncn1/N=C/c1cccs1	12.8
CN1/C(=C/c2cccc[n+]2CCO)Sc2ccccc21.[I-]	6.72
Clc1ncc(CN2CCN(c3ccccc3)CC2)s1	2.96
Cc1ccc2[nH]c(=O)c(COC(=O)C3CCCCC3)cc2c1	15.5
CN1CCN(C(=O)CN2C(=O)COc3ccc(S(=O)(=O)N4CCOCC4)cc32)CC1	14.6
CCCCn1c(N)c(N(CC(C)C)C(=O)CN2C(=O)c3ccccc3C2=O)c(=O)[nH]c1=O	-2.86
Cc1ccc(C(O)P(=O)(Oc2ccccc2)Oc2ccccc2)cc1 (centres unmarked)	4.04
CCc1nnc(NS(=O)(=O)c2ccc(NC(=S)NC(=O)c3ccccc3)cc2)s1	17
CCN(Cc1ccccc1)S(=O)(=O)c1ccc(C(=O)N(CCCN(C)C)c2nc3cc4c(cc3s2)OCCO4)cc1.Cl	2.09
COc1ccc(NC(=O)C2CC(=O)N(Cc3ccc(C)cc3)C2)cc1S(=O)(=O)N1CCCCC1 (centres unmarked)	8.95
O=C(NC1CC2CCC(C1)N2Cc1ccccc1)c1cccc(F)c1 (centres unmarked)	-17.5
